Test results: PubChem BioAssay AID1477 (National Center for Advancing Translational Sciences (NCATS), 2009)
Out of some 230,000 compounds screened, fewer than 10 were called active. This list was built around the results that the source calls inconclusive (neither active nor inactive); the mix of calls is not that of the screen. Calls follow the shape of the dose curve; as a rule, active = well fitted curve in the direction sought with a large enough effect; inconclusive = small, poorly fitted or top-dose-only effect, or effect the other way, or another doubt; inactive = no such curve, though single readings can be large or run the other way. Potencies of inconclusive entries are left out as doubtful fits.

The compounds below were run against Runt-related transcription factor 1 (Homo sapiens) + Core-binding factor subunit beta (Homo sapiens) (UniProt Q01196+Q13951) (assay: qHTS Assay for Compounds Blocking the Interaction Between CBF-beta and RUNX1 for the Treatment of Acute Myeloid Leukemia). Settings: AlphaScreen CBFb-His/RUNX1-biotin binding, biochemical; activity, negative = inhibition: at 59.8 µM (top of the series) unless noted.
Chain of UniProt Q01196 (Q01196 whole entry, looked up): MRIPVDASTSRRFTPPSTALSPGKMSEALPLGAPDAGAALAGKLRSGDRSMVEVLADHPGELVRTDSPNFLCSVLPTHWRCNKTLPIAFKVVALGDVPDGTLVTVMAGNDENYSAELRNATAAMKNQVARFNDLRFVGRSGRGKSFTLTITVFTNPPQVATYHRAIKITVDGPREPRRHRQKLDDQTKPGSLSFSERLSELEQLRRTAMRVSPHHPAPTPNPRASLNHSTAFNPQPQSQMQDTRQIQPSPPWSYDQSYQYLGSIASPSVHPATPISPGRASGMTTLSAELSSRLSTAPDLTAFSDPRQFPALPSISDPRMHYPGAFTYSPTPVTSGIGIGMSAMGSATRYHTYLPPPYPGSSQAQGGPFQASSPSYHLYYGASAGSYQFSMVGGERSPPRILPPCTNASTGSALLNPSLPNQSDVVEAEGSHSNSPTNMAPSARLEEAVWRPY
Chain of UniProt Q01196 (Q13951 whole entry, looked up): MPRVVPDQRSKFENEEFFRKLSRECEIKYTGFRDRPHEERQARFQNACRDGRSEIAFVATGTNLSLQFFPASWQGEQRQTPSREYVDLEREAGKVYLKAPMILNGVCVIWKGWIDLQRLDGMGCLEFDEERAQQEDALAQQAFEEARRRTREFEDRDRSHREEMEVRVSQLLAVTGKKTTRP
In short: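 Proteins preincubated together for 20 min at RT before compound addition; 15 min later, nickel and streptavidin beads were added and left 90 min prior to AlphaScreen measurement.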
For activity, negative = inhibition in this document: % of control where 0% means no effect.

Structure (SMILES)	Potency	activity, negative = inhibition
Cc1ccc(C2CC(=O)Oc3cc4c(cc32)OCO4)cc1 (centres undefined)	inconclusive [inhibitor, single point]	
CN(C)c1ccc(/C=N/N2C(=S)SC(C)(C)C2N(O)C(=O)Nc2ccc([N+](=O)[O-])cc2)cc1 (centres undefined)	inconclusive [inhibitor, single point]	
O=C(Nc1ccc2c(c1)OCO2)c1cc2n(n1)C(C(F)(F)F)CC(c1ccccc1)N2 (centres undefined)		inactive: -6.22%
Cc1cc(Cl)cc(Cl)c1CNc1c([N+](=O)[O-])c(=O)oc2ccccc12		inactive: -7.75%
COc1cc(/C=C2/NC(=O)N(Cc3ccccc3F)C2=O)ccc1Oc1ccc([N+](=O)[O-])cn1		inactive: -2.98%
O=C(CN1CCN(Cc2ccccc2)CC1)c1c[nH]c2ccccc12		inactive: 8.94%
Clc1ccc(-c2nc3cnccn3c2NC2CCCC2)cc1		inactive: 24.2%
CCOc1ccccc1N=C1SCCCN1C		inactive: 0.0161%
CC(C)[C@H](CO)Nc1nc(NCc2ccc(S(N)(=O)=O)cc2)c2ncn(C(C)C)c2n1	inconclusive [activator, single point]	
Cc1[nH]n(-c2ccccc2)c(=O)c1/C=N/Nc1nncc(-c2ccccc2)n1	inconclusive [inhibitor, partial curve]	
CCOC(=O)c1cc2c(ccn2C)n1Cc1ccc(C#N)cc1	inconclusive [inhibitor, single point]	
CC1(OC(=O)C2CCCC2)C(=O)C=C2C=C(c3ccsc3)N(Cc3ccc4c(c3)OCO4)C=C2C1=O (centres undefined)	inconclusive [inhibitor, partial curve]	
COc1ccc(-c2csc(/C(C#N)=C\c3ccc(O)c([N+](=O)[O-])c3)n2)cc1OC	inconclusive [inhibitor, full curve, poor fit]	
COc1ccccc1Nc1c([N+](=O)[O-])cc(C)cc1[N+](=O)[O-]	inconclusive [inhibitor, partial curve]	
Cc1ccc(/C=C2\SC(=S)N(CC(=O)Nc3cccnc3)C2=O)cc1	inconclusive [inhibitor, single point]	
O=C(CCSc1ccc(Cl)cc1)c1cccs1	inconclusive [activator, single point]	
O=C(Nc1nccs1)c1ccc(COc2ccc(Cl)cc2)o1		inactive: -3.1%
Cc1ccccc1OCCn1cnc2cc([N+](=O)[O-])ccc2c1=O	inconclusive [inhibitor, partial curve]	
O=Nc1c(-c2ccccc2)cc2ccccn12	inconclusive [inhibitor, single point]	
